The campaign covered roughly 43,000 compounds. About 200 (0.47%) were called active. About 12% were inconclusive and are not listed. The call rests on the fitted dose curve; in most records, active means well fitted cell-killing curve with a large enough effect; inconclusive means small, poorly fitted or top-dose-only effect, or effect the other way; inactive means flat fitted curve, though single readings scatter. The list shows a part of the results.
Test: Cell viability qHTS assay in S16 Pmp22-F2sN cells; further: nearly all actives have a fitted effect of over 65% in size
Settings: S16 Pmp22-F2sN Schwann cells (luciferase reporters placed in the Pmp22 gene) viability, CellTiter-Glo, 24 h; series mostly up to 57.5 µM; activity change, negative = cytotoxicity: at the top concentration
In short: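 S16 Schwann cells carrying the Pmp22-F2sN reporter, seeded in 1536-well format, were exposed to library compounds for 24 h at 37C. Viability was read as CellTiter-Glo luminescence after 15 min at room temperature.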
On the % scale 0 is the no-effect control and ±100 the full control effect.

Structure (SMILES) | activity change, negative = cytotoxicity
CSc1ccc(CCNC(=O)C2CCN(c3ncnc4c3nc3n4CCCCC3)CC2)cc1 | inactive: 14.7%
Cc1ccc(C2c3[nH]c4ccccc4c3CCN2C(=O)CCc2ccccc2)cc1 (stereo not drawn) | inactive: -4.46%
CCOc1ccc(CCNC(=O)C2CCN(Cc3nc(-c4ccccc4C)oc3C)CC2)cc1OCC | inactive: 8.91%
O=C(CC(NCc1cccnc1)C(=O)O)Nc1ccc(O)cc1 (stereo not drawn) | inactive: -0.333%
Fc1ccc(Nc2c(-c3ccco3)nc3ccccn23)cc1 | inactive: -8.81%
Cn1c(=O)c(=O)n(C)c2cc(S(=O)(=O)Nc3ccc(Cl)c(C(F)(F)F)c3)ccc21 | inactive: 10.4%
COc1cc(OC)c(NC(=O)Cn2cnc3nc4c(cc3c2=O)CCCC4)cc1Cl | inactive: -1.7%
Cc1cc(=O)oc2cc(OCC(=O)Nc3c(C(C)C)cccc3C(C)C)ccc12 | inactive: -2.22%
Clc1ccc(-c2nnn3c2nc(NCc2ccc4c(c2)OCO4)c2ccccc23)cc1 | inactive: 9.08%
CC(C)(C)c1ccc(C(=O)N2CCN(Cc3cc(=O)n4nc(-c5ccccc5F)sc4n3)CC2)cc1 | inactive: 12.4%
Cc1ccc(NC(=O)C2CCC(CNS(=O)(=O)c3ccc4c(c3)C(C)(C)C(=O)N4C)CC2)cc1 (stereo not drawn) | inactive: 19.6%
CCCCNC(=O)CC1N=C2c3ccccc3N=C(SCC(=O)NCc3ccccc3Cl)N2C1=O (stereo not drawn) | inactive: 4.61%
COc1cccc(C(=O)Nc2cccc(OCc3cc(=O)n4cccc(C)c4n3)c2)c1 | inactive: 12.2%
Cc1ccc(NC(=O)CCC(=O)N2CCSc3ccccc32)cc1 | inactive: 0.613%
Cc1cnc2c(c1SCC(=O)NCc1ccccc1Cl)c(=O)n(C)c(=O)n2C | inactive: 6.28%
CC(C)(Oc1ccc(Cl)cc1)C(=O)Nc1nnc2n1CCS2 | inactive: 9.96%
Cc1ccn2c(Nc3ccccc3C)c(-c3cccnc3)nc2c1 | inactive: -25.5%
Clc1ccc(-c2noc(-c3cccnc3N3CCN(c4ccccc4)CC3)n2)cc1 | inactive: 7.85%
O=C(COc1ccccc1)Nc1nnc(SCc2cc(=O)c3ccccc3[nH]2)s1 | inactive: 0.855%
CCOc1ccc(NC(=O)Cn2cc(C(=O)c3ccccc3)c(=O)c3cc4c(cc32)OCCO4)cc1 | inactive: 11.3%
Cc1ccc(C)c(N2CCN(C(=O)c3nn(C)c4c3CS(=O)(=O)c3ccccc3-4)CC2)c1 | inactive: -12.2%
Nc1ccc(S(=O)(=O)NC2(C(F)(F)F)NC(=O)N(c3cccc(Cl)c3)C2=O)cc1 (stereo not drawn) | inactive: 7.45%
O=c1c2ccccc2nc(N2CCN(c3cccc(Cl)c3)CC2)n1-c1ccccc1 | inactive: -6.87%
O=C(Nc1ccccc1C(F)(F)F)N1CCC2(CC1)Oc1ccccc1C(=O)N2Cc1ccccc1F | inactive: -0.0363%

Structure (SMILES) | activity change, negative = cytotoxicity
CCCCOc1ccc(C(=O)Nc2nc3c(s2)CC(C)CC3)cc1 (stereo not drawn) | inactive: 8.49%
COCCNC(=O)c1ccc2c(c1)N(Cc1c(F)cccc1Cl)C(=O)c1ccccc1S2 | inactive: 14.3%
CCOC(=O)c1c(C)oc2nc(C)nc(NCc3ccc(OC)cc3)c12 | inactive: 4.36%
COC(=O)c1cccc(CN2C(=O)SC(Nc3ccc(Cl)cc3)C2=O)c1 (stereo not drawn) | inactive: -16%
CCOC(=O)c1noc2ncnc(Nc3cccc(C(F)(F)F)c3)c12 | inactive: -13.2%
COc1ccccc1N1CCN(S(=O)(=O)c2c(C)sc3ncn(CC(=O)NCCN(C)C)c(=O)c23)CC1 | inactive: 0.802%
COc1ccc(OC)c(NC(=O)CSC2=Nc3ccccc3C3=NC(CCC(=O)NCCc4ccccc4)C(=O)N23)c1 (stereo not drawn) | inactive: 6.97%
O=C(NCCC1=CCCCC1)c1ccc2c(c1)N(Cc1ccc(Cl)cc1)C(=O)c1ccccc1S2(=O)=O | inactive: -0.462%
CCc1ccc(N2C(=O)N(CC(=O)C(C)(C)C)c3ccccc3S2(=O)=O)cc1 | inactive: 6.49%
Cc1nnc(NCc2ccc(F)cc2)c2c1nnn2Cc1ccccc1Cl | inactive: 10.5%
CCOc1ccc(NC(=O)CCn2nc(C)c(S(=O)(=O)N3CCCCC3)c2C)cc1 | inactive: -16%
Cc1c(Cl)cccc1NC(=O)Cn1cnc(S(=O)(=O)N2CCCC2)c1 | inactive: 1.53%
COc1ccc(CCNC(=O)Cn2nc(C)c3c(C)n(-c4ccc(C)cc4)nc3c2=O)c(OC)c1 | inactive: 3.82%
COc1ccc(NC(=O)c2oc3ccccc3c2NC(=O)COc2ccc(F)cc2)c(OC)c1 | inactive: 17.6%
CCCNc1nc2c(c(=O)n(C)c(=O)n2C)n1CC(O)COc1ccccc1 (stereo not drawn) | inactive: -0.676%
Cc1ccc(NC(=O)Cn2cc(C(=O)C3CCCCC3)c3ccccc32)c(C)c1 | inactive: -26.7%
Cc1cccc(C(=O)Nc2nnc(S(=O)(=O)N3CCCc4ccccc43)s2)c1 | inactive: -1.91%
Cn1c(=O)n(C)c2cc(NS(=O)(=O)c3ccc(C(C)(C)C)cc3)c(NCc3ccccc3)cc21 | inactive: -5.91%
CCOc1ccc(NC(=O)CCNS(=O)(=O)c2cccc3nsnc23)cc1 | inactive: 21.5%
CCc1cccc(C)c1NC(=O)C(CC)Sc1nncn2c1cc1occc12 (stereo not drawn) | inactive: -14.1%
CCC(=O)Nc1cc(-c2nc3ccccc3s2)c(Cl)cc1Cl | inactive: -4.2%
Cc1ccc(Nc2nc(C)c(NC(=O)c3ccc(C)cc3)c(Nc3ccc(C)cc3)n2)cc1 | inactive: 1.24%
CCOc1ccc(C(=O)Nc2ccc3oc(-c4ccncc4)nc3c2)cc1 | inactive: 2.6%
CCS(=O)(=O)N1CCc2cc(C(=O)Nc3cc(OC)c(Cl)cc3OC)ccc21 | inactive: 1.62%

— PubChem BioAssay AID1508642 (National Center for Advancing Translational Sciences (NCATS), 2021)
